# Assay results from PubChem BioAssay (EPA / NIEHS).
# For some of these results: The hits were mostly taken out for another list; the other results follow. Records with an inconclusive call do not appear. The entries are a selection whose mix differs from that of the whole data set. Some compounds were tested as several samples or in several runs, with calls that do not always agree. Active and inactive are the calls of the source. How the source made its calls, unless noted: active means hit-call score of the fitted dose curve at least 0.9, where 1 is the maximum; inactive means score below 0.9.
# How the values were obtained:
# [1] = read-out: Interferon-gamma inducible Protein 10 (IP10), CXCL10 (gene 3627); experiment: BSK_BE3C_IP10: BioMAP Diversity Plus: BE3C Assay for Interferon-gamma inducible Protein 10 (IP10) Biomarker Activity (AID 2283034); details: actives raise or lower the signal; primary human bronchial epithelial cells
# Method in brief: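 Human primary bronchial epithelial cells were exposed to chemicals for 24 hours, after which IP-10 levels were measured by ELISA. Data were fitted bidirectionally against DMSO, which served as the negative control and activity baseline.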
# [2] = biological target: human Ephrin type-A Receptor 1 (EphA1), EPHA1 (gene 2041) (UniProt P21709); experiment: NVS_ENZ_hEphA1: NovaScreen (NVS) Enzymatic Assay for human Ephrin type-A Receptor 1 (EphA1) (AID 2283158; active means hit-call score of the fitted dose curve at least 0.9, where 1 is the maximum;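 further: activity is signal loss versus DMSO meaning EphA1 kinase inhibition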)
# UniProt P21709, sequence (P21709 whole entry, looked up): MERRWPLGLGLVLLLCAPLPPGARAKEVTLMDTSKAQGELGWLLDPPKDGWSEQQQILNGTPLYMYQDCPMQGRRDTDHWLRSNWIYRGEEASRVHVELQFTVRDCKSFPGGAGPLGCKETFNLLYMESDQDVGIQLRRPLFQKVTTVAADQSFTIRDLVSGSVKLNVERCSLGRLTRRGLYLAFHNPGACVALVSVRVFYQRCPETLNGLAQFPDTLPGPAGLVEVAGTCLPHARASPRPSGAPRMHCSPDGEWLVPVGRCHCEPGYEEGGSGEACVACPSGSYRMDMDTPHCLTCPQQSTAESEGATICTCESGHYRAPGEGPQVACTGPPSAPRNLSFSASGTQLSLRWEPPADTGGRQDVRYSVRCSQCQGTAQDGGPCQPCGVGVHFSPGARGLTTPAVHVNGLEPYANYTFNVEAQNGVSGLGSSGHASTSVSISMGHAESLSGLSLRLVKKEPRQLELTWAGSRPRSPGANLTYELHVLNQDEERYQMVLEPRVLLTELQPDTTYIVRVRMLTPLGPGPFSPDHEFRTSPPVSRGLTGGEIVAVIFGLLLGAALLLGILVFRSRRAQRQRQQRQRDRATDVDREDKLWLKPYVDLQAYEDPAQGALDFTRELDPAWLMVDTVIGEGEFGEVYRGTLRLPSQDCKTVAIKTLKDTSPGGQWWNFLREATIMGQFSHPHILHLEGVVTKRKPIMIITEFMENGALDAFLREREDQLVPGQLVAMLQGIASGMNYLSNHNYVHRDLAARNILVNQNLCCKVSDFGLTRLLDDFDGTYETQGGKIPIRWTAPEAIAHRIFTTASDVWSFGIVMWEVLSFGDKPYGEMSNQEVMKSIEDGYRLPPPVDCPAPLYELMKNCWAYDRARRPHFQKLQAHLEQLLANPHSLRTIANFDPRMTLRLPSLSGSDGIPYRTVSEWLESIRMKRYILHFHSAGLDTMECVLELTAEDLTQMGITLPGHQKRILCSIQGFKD
# Method in brief: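 Biochemical kinase assay run cell-free; 1 h incubation; readout is fluorescence with mobility-shift separation of product. Concentration-response up to 50 uM for actives from a 25 uM screen.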
# [3] = TOX21_p53_BLA_p2_viability: Viability Assessment in the Tox21 HCT-116 p53 Agonism Beta-lactamase Assay, Phase 2 (AID 2283591; active means hit-call score of the fitted dose curve at least 0.9, where 1 is the maximum;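 further: compound exposure lasted 16 h at 37 °C; actives lower the ATP signal meaning cytotoxicity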)
# Method in brief: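 HCT116 p53-bla cells, 4000/well, dosed after 5 h plating (217-fold dilution of DMSO stocks) and incubated 16 h at 37C. Viability taken as cellular ATP by CellTiter-Glo luminescence after 30 min RT; signal loss marks cytotoxicity.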
# [4] = biological target: Cellular tumor antigen p53 (Homo sapiens) (UniProt P04637); experiment: TOX21_p53_BLA_p3_ratio: Tox21 HCT-116 p53 Agonism Beta-lactamase Assay, Ratio, Phase 3 (AID 2283596; active means hit-call score of the fitted dose curve at least 0.9, where 1 is the maximum)
# UniProt P04637, sequence (P04637 whole entry, looked up): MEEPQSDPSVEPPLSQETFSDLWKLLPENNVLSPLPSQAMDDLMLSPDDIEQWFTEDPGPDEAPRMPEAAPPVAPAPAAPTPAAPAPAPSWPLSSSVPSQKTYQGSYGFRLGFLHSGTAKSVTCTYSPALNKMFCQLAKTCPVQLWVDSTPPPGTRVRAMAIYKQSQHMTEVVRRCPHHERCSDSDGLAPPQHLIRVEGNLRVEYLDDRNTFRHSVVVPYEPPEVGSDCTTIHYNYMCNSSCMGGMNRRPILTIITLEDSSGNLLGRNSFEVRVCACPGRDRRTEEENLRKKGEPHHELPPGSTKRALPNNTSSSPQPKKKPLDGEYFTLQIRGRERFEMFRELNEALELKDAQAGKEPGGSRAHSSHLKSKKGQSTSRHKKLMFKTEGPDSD
# Method in brief: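 HCT116 p53-bla cells (4000/well) given compound in DMSO (217-fold dilution) after 5 h, incubated 16 h at 37C. CCF4-AM substrate 2 h at room temperature; 460/530 nm emission ratio, gain fitted against DMSO.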
# [5] = read-out: Tissue plasminogen activator (tPA), PLAT (gene 5327); experiment: BSK_BE3C_tPA: BioMAP Diversity Plus: BE3C Assay for Tissue plasminogen activator (tPA) Biomarker Activity (AID 2283041); details: actives raise or lower the signal; primary human bronchial epithelial cells;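 further: tPA level quantified by ELISA one day after compound addition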
# Method in brief: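 Human primary bronchial epithelial cells were dosed with chemical and tPA biomarker levels measured by ELISA 24 hours later. Activity was fitted bidirectionally against DMSO as negative control and baseline.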
# [6] = read-out: Transforming growth factor beta 1 (TGFb1), TGFB1 (gene 7040); experiment: BSK_KF3CT_TGFb1: BioMAP Diversity Plus: KF3CT Assay for Transforming growth factor beta 1 (TGFb1) Biomarker Activity (AID 2283072); details: actives raise or lower the signal; primary human keratinocytes with fibroblasts
# Method in brief: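 Human keratinocyte plus foreskin fibroblast primary co-culture, dosed with chemical for 24 h. TGF-b1 quantified by ELISA. Activity fitted bidirectionally against DMSO negative control as baseline.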
# [7] = BSK_BE3C_SRB: Viability Assessment in the BioMAP Diversity Plus: BE3C Assay (AID 2283028); details: primary human bronchial epithelial cells;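 on AC50: fitted both ways so AC50 may mark signal gain or loss versus DMSO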
# Method in brief: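 Overt cytotoxicity was assessed as total protein in confluent human primary bronchial epithelial cultures 24 h after chemical addition, using 0.1% sulforhodamine B staining read at 560 nm.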
# [8] = read-out: Vascular cell adhesion molecule 1 (VCAM1), VCAM1 (gene 7412); experiment: BSK_4H_VCAM1: BioMAP Diversity Plus: 4H Assay for Vascular cell adhesion molecule 1 (VCAM1) Biomarker Activity (AID 2283033); details: actives raise or lower the signal; primary human endothelial cells (HUVEC)
# Method in brief: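 Primary human umbilical vein endothelial cells were exposed to chemicals for 24 h, after which VCAM-1 was quantified by ELISA. Responses were fitted bidirectionally against DMSO as negative control and activity baseline.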
# [9] = read-out: E-selectin (Homo sapiens) (UniProt P16581); experiment: BSK_SAg_Eselectin: BioMAP Diversity Plus: SAg Assay for Eselectin Biomarker Activity (AID 2283091); details: actives raise or lower the signal; primary human HUVEC with PBMC
# UniProt P16581, sequence (P16581 whole entry, looked up): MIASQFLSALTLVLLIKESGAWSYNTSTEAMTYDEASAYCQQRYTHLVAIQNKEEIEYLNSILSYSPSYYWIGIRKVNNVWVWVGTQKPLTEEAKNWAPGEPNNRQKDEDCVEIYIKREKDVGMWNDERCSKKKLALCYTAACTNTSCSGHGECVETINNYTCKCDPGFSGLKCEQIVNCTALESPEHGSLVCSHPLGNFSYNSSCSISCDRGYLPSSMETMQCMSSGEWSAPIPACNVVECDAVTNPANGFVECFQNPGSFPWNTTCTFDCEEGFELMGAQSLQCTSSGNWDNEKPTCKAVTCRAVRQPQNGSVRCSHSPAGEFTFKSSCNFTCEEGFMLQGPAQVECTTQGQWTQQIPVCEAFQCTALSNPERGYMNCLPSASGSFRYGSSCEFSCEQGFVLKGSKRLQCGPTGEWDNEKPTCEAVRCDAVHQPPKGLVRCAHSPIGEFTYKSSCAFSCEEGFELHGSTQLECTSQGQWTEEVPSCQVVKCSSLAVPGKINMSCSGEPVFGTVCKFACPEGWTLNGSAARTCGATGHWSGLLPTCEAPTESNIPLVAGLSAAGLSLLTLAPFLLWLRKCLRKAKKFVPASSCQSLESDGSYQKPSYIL
# Method in brief: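 Primary human endothelial cells and peripheral blood mononuclear cells were co-cultured and exposed to chemical for 24 hours. E-selectin levels were then quantified by ELISA, with bidirectional curve fitting normalised to DMSO controls.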
# [10] = biological target: Cellular tumor antigen p53 (Homo sapiens) (UniProt P04637); experiment: TOX21_p53_BLA_p2_ratio: Tox21 HCT-116 p53 Agonism Beta-lactamase Assay, Ratio, Phase 2 (AID 2283592; active means hit-call score of the fitted dose curve at least 0.9, where 1 is the maximum)
# Method in brief: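 An inducible beta-lactamase reporter in HCT116 cells signals p53 pathway activation. After 16 h chemical exposure at 37C, cells load CCF4-AM substrate for 2 h at room temperature; activity is the cleaved/uncleaved emission ratio relative to DMSO.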
# [11] = read-out: Collagen III, COL3A1 (gene 1281); experiment: BSK_MyoF_CollagenIII: BioMAP Diversity Plus: MyoF Assay for Collagen III Biomarker Activity (AID 2284239); details: primary human lung fibroblasts
# Method in brief: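 Compounds are added to primary human lung fibroblasts and left for 24 hours. Collagen III is then quantified by ELISA. Analysis takes DMSO as baseline and fits increases in signal.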
# [12] = read-out: urokinase plasminogen activator (uPA), PLAU (gene 5328); experiment: BSK_BE3C_uPA: BioMAP Diversity Plus: BE3C Assay for urokinase plasminogen activator (uPA) Biomarker Activity (AID 2283038); details: actives raise or lower the signal; primary human bronchial epithelial cells
# Method in brief: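 Measured by ELISA: uPA from human primary bronchial epithelial cells 24 h after chemical treatment. Values derive from bidirectional curve fitting with DMSO serving as negative control. Total protein by SRB staining in parallel wells flagged overt cytotoxicity.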
# [13] = read-out: Matrix Metallopeptidase 1 (MMP1), MMP1 (gene 4312); experiment: BSK_hDFCGF_MMP1: BioMAP Diversity Plus: hDFCGF Assay for Matrix Metallopeptidase 1 (MMP1) Biomarker Activity (AID 2283064); details: actives raise or lower the signal; primary human foreskin fibroblasts
# Method in brief: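 Primary human foreskin fibroblasts exposed to chemicals for 24 h; MMP1 measured by ELISA. Cytotoxicity tracked by SRB staining in parallel cultures; bidirectional fit relative to DMSO.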
# [14] = read-out: CD69, CD69 (gene 969); experiment: BSK_SAg_CD69: BioMAP Diversity Plus: SAg Assay for CD69 Biomarker Activity (AID 2283089); details: actives raise or lower the signal; primary human HUVEC with PBMC;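 further: cell surface CD69 protein quantified by ELISA with fluorescence detection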
# Method in brief: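 Primary human vascular co-culture (umbilical vein endothelium with peripheral blood mononuclear cells) exposed to test chemical for 24 h. CD69 levels quantified by fluorescence ELISA; DMSO served as negative control for bidirectional fitting.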
# [15] = biological target: human Adenosine A1 Receptor (AdoRA1), ADORA1 (gene 134) (UniProt P30542); experiment: NVS_GPCR_hAdoRA1: NovaScreen (NVS) G Protein-Coupled Receptor Assay for human Adenosine A1 Receptor (AdoRA1) (AID 2283254; active means hit-call score of the fitted dose curve at least 0.9, where 1 is the maximum)
# UniProt P30542, sequence (P30542 whole entry, looked up): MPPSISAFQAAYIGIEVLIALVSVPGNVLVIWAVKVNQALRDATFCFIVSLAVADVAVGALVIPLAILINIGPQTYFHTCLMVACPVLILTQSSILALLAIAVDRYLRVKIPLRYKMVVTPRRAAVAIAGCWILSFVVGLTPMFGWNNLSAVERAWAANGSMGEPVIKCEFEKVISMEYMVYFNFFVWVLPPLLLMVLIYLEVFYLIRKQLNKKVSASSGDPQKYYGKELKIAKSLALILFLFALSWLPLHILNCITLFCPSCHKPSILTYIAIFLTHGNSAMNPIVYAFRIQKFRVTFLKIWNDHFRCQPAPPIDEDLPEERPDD
# Method in brief: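 Membranes from human cortical tissue were incubated with radioligand and test chemical for 1 hour, then filtered and counted. Activity was taken as signal loss relative to DMSO, screened at 25 uM in duplicate before concentration-response follow-up.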
# [16] = tested on: rabbit Platelet Activating Factor Receptor (PAF), gene 100354046; experiment: NVS_GPCR_rabPAF: NovaScreen (NVS) G Protein-Coupled Receptor Assay for rabbit Platelet Activating Factor Receptor (PAF) (AID 2283287; active means hit-call score of the fitted dose curve at least 0.9, where 1 is the maximum)
# Procedure: NVS_GPCR_rabPAF is a biochemical, single-readout assay that uses extracted gene-proteins from Rabbit platelets in a tissue-based cell-free assay. Measurements were taken 1 hour after chemical dosing in a 48-well plate.NVS_GPCR_rabPAF is one of one assay component(s) measured or calculated from the NVS_GPCR_rabPAF assay. It is designed to make measurements of radioligand binding, a form of binding reporter, as detected with scintillation counting signals by Filter-based radiodetection technology.Data from the assay component NVS_GPCR_rabPAF was analyzed into 1 assay endpoint. This assay endpoint, NVS_GPCR_rabPAF, was analyzed in the positive analysis fitting direction relative to DMSO as the negative control and baseline of activity. Using a type of binding reporter, loss-of-signal activity can be used to understand changes in the binding as they relate to the gene PTAFR. Furthermore, this assay endpoint can be referred to as a primary readout, because the performed assay has only produced 1 assay endpoint. To generalize the intended target to other relatable targets, this assay endpoint is annotated to the gpcr intended target family, where the subfamily is rhodopsin-like receptor. […]
# [17] = read-out: Macrophage colony-stimulating factor (MCSF), CSF1 (gene 1435); experiment: BSK_CASM3C_MCSF: BioMAP Diversity Plus: CASM3C Assay for Macrophage colony-stimulating factor (MCSF) Biomarker Activity (AID 2283044); details: actives raise or lower the signal; primary human coronary artery smooth muscle cells;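 further: M-CSF protein amount quantified by ELISA after 24 h exposure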
# [18] = CEETOX_H295R_CORTIC: CeeTox H295R High-throughput Steroidogenesis Assay for Corticosterone (CORTIC) (AID 2283437); details: actives raise or lower the signal;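 further: corticosterone secreted into medium quantified by mass spectrometry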
# Method in brief: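 H295R adrenal cells prestimulated 48 hours with 10 uM forskolin, then exposed 48 hours to chemical in 0.1% DMSO. Corticosterone in medium measured by HPLC-MS/MS after MTBE extraction; MTT viability in the same wells; bidirectional fit versus DMSO.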
# [19] = biological target: Retinoic acid receptor RXR-alpha (Homo sapiens) (UniProt P19793); experiment: OT_NURR1_NURR1RXRa_0480: Odyssey Thera (OT) 8-hour HEK293T Protein Complementation Assay for Nurr1/retinoid X receptor (RXR) (AID 2283385; active means hit-call score of the fitted dose curve at least 0.9, where 1 is the maximum)
# UniProt P19793, sequence (P19793 whole entry, looked up, the tested form may be a part): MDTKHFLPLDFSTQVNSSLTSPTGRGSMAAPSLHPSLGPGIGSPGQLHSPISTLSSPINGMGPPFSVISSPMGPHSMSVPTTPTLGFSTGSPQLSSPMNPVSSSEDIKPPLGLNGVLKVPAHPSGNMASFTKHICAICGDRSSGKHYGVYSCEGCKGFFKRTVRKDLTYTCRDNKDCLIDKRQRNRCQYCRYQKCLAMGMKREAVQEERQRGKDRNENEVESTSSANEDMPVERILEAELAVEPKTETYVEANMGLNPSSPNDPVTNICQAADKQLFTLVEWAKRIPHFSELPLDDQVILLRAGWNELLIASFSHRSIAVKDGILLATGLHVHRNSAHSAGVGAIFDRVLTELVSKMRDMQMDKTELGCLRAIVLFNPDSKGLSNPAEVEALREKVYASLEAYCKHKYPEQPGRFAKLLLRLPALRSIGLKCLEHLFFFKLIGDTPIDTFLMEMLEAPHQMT
# Method in brief: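 HEK293T cells expressing Nurr1 and RXRα fused to reporter fragments were dosed with compound for 8 hours. Complex formation was read as fluorescence intensity and analysed as gain of signal against DMSO as baseline.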
# [20] = read-out: succinate dehydrogenase complex iron sulfur subunit B (SDHB), SDHB (gene 6390); experiment: LTEA_HepaRG_SDHB: Life Technologies and Expression Analysis (LTEA) Assay for succinate dehydrogenase complex iron sulfur subunit B (SDHB) using HepaRG (AID 2283528); details: actives raise or lower the signal; mRNA level, 48 h
# Method in brief: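 HepaRG, 48 h exposure, 8-pt half-log series from 100 uM in 0.5% DMSO, duplicates. Readout: SDHB mRNA by Fluidigm qRT-PCR vs housekeeping genes; bidirectional fit relative to DMSO.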
# [21] = read-out: Urokinase-type plasminogen activator receptor (uPAR), PLAUR (gene 5329); experiment: BSK_4H_uPAR: BioMAP Diversity Plus: 4H Assay for Urokinase-type plasminogen activator receptor (uPAR) Biomarker Activity (AID 2283030); details: actives raise or lower the signal; primary human endothelial cells (HUVEC)
# Method in brief: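 Chemicals are dosed onto human vascular endothelial primary cells (umbilical vein). After 24 h, uPAR is read by ELISA. Gain or loss of signal is fitted relative to DMSO.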
# [22] = BSK_4H_SRB: Viability Assessment in the BioMAP Diversity Plus: 4H Assay (AID 2283027); details: primary human endothelial cells (HUVEC);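 further: cells exposed to compound for 24 h before staining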
# Method in brief: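 Human umbilical vein endothelial cells, 24 h after chemical dosing; total protein measured by 0.1% sulforhodamine B staining after 10% TCA fixation, read at 560 nm. Bidirectional fitting against DMSO.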
smiles,measurement,setting,value
Oc1ccc(/C=C/c2cc(O)cc(O)c2)cc1,AC50,[1],active: 24.6 µM
same,AC50,[2],active: 11.2 µM
same,AC50,[3],active: 73.9 µM
same,outcome,[4],inactive
CC(=O)Nc1ccc(C(=O)CCl)cc1,outcome,[5],inactive
same,outcome,[6],inactive
O=C1OC2(c3ccccc31)c1cc(I)c(O)c(I)c1Oc1c2cc(I)c(O)c1I,AC50,[7],active: 10.1 µM
same,AC50,[8],active: 15.1 µM
same,AC50,[9],active: 12.7 µM
same,outcome,[10],inactive
same,AC50,[11],active: 2.76 µM
O=C(O)Cc1cc(I)c(Oc2cc(I)c(O)c(I)c2)c(I)c1,AC50,[12],active: 17.2 µM
CCC(C)(C)C(=O)O[C@H]1C[C@@H](C)C=C2C=C[C@H](C)[C@H](CC[C@@H]3C[C@@H](O)CC(=O)O3)[C@H]21,AC50,[12],active: 35 µM
same,outcome,[13],inactive
same,AC50,[14],active: 6.38 µM
same,AC50,[15],active: 4.96 µM
same,AC50,[16],active: 17.1 µM
CN(C)c1ccc(Cc2ccc(N(C)C)cc2)cc1,outcome,[17],inactive
same,outcome,[18],inactive
CC(=O)[C@@]1(O)CC[C@H]2[C@@H]3CCC4=CC(=O)CC[C@]4(C)[C@H]3CC[C@@]21C,outcome,[7],inactive
same,outcome,[19],inactive
same,outcome,[20],inactive
CC[N+](CC)(CC(=O)Nc1c(C)cccc1C)Cc1ccccc1 (tested in a mixture with another compound),outcome,[21],inactive
O=C(c1ccccc1)c1ccccc1,outcome,[22],inactive
same,outcome,[3],inactive
